# According to PubChem BioAssay AID686978 (National Center for Advancing Translational Sciences (NCATS), 2013):
# Out of some 420,000 compounds screened, about 64,000 (15%) were called active. The shares of active, inactive and inconclusive entries below differ from those in the screen. Calls come from the whole dose curve; as a rule, active = well fitted inhibition curve with a large enough effect; inconclusive = small, poorly fitted or top-dose-only effect; inactive = flat fitted curve, though single readings scatter. No potency is given beside an inconclusive call; the fits are too rough.
# Assay: qHTS for Inhibitors of human tyrosyl-DNA phosphodiesterase 1 (TDP1): qHTS in cells in absence of CPT; note: nearly all actives have a fitted effect of over 55% in size
# Conditions: DT40 Tdp1-/- hTDP1 cells, no CPT, ATP luminescence, 48 h; activity change, negative = growth inhibition: at 46.2 µM (top of the series) unless noted
# In short: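 DT40 Tdp1-/-;hTDP1 cells, no CPT (DMSO vehicle only), 400 cells/well; compounds pin-transferred; ≥48 hr, 37 °C; CellTiter-Glo 30 min RT dark, luminescence read.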
# % is set by controls: 0 for no effect and ±100 for the full control effect; potency is the fitted concentration of half-maximal effect; tags give direction and shape of the fitted curve.
Structure (SMILES),"activity change, negative = growth inhibition",Potency
Nc1ccc(SCc2nc3cccc4c3n2CCC4)cc1,inactive: -12.5%,
CCCCSc1nc(C)cc(C)c1S(=O)(=O)c1ccccc1C,,"inconclusive [inhibitor, single point]"
Cc1ccc(OCc2nnn(CC(=O)NS(=O)(=O)c3c(C)noc3C)c2-c2ccccc2)cc1,,active: 1.03 µM
Cc1ccc(S(=O)(=O)N2CCOC23CCN(C(=O)c2ccc(Cl)cc2Cl)CC3)cc1,,active: 20.6 µM
CCOc1ccccc1C(=O)Nc1cc(OC)ccc1OC,,"inconclusive [inhibitor, partial curve, poor fit]"
CCOc1ccc(C(=O)C(C)OC(=O)Cn2[nH]c(=O)c3ccccc3c2=O)cc1 (stereo unspecified),inactive: -27%,
COc1ccc(NS(=O)(=O)c2cc(NC(=O)c3nn(C)c(=O)c4ccccc34)ccc2OC)cc1,,"inconclusive [inhibitor, single point]"
COCCN(Cc1cc2cccc(C)c2n2nnnc12)C(=O)C(F)(F)F,inactive: -15.7%,
CCOc1cnc(-c2c(-c3ccccc3Cl)noc2C)o1,inconclusive: -36.5% [inhibitor],
CCc1ccccc1NC(=O)CSc1nc(C)c(C(=O)Nc2ccccc2)c(-c2ccc(Cl)cc2)c1C#N,,"inconclusive [inhibitor, single point]"
Cc1[nH]c(=O)[nH]c(=O)c1NC(=O)c1ccccc1[N+](=O)[O-],inactive: -4.26%,
CCCn1c(N)c(C(=O)CSc2n[nH]c(-c3ccccc3F)n2)c(=O)n(C)c1=O,,active: 23.1 µM
N#Cc1cccc(NC(=O)CSc2nnc(C3CC3)n2C2CC2)c1,inactive: -10%,
O=C(CSc1nc2ccccc2c(=O)n1CCCN1CCOCC1)Nc1ccc(F)c(Cl)c1,,"inconclusive [inhibitor, single point]"
CC(NC(=O)COc1ccccc1)C(=O)NCc1ccccc1Cl (stereo unspecified),inactive: -1.62%,
C[C@H]1CN([C@@H](C)CO)C(=O)Cc2cc(NC(=O)CCC(F)(F)F)ccc2O[C@H]1CN(C)Cc1ccc(C(F)(F)F)cc1,,"inconclusive [inhibitor, single point]"
CCOC(=O)C1=C(C)c2ccccc2N(C(=O)OC)C1(C)C(=O)OCC (stereo unspecified),,active: 10.3 µM
O=C(NC1CCc2ccccc21)c1cc(COc2c(F)cccc2F)on1 (stereo unspecified),inactive: -0.0241%,
OC(CSc1c(Cl)cccc1Cl)CN1CCN(c2ccc(F)cc2)CC1 (stereo unspecified),,"inconclusive [inhibitor, single point]"
CCOc1ccc(C(=O)Nc2cccc(NC(=O)c3cccs3)c2)cc1[N+](=O)[O-],,active: 18.4 µM
CN(c1ccccc1)S(=O)(=O)c1ccc(Cl)c(C(=O)OCC(=O)NCc2ccco2)c1,inactive: 0.341%,
C=CCn1c(CCNC(=O)c2cccs2)nnc1SCC(=O)c1ccc(Br)cc1,,"inconclusive [inhibitor, partial curve, poor fit]"
O=C(Nc1ccc(-c2nc3ccccc3s2)c(O)c1)c1ccc(Br)cc1,,"inconclusive [inhibitor, partial curve]"
CCN(CC(=O)Nc1ccccc1C(F)(F)F)C(=O)c1ccccc1Cc1ccccc1,,active: 20.6 µM

Structure (SMILES),"activity change, negative = growth inhibition",Potency
O=C(N/N=C/c1cccc(O)c1)C(=O)N1CCCCCC1,inactive: -4.65%,
Cc1[nH]c2ccccc2c1/C=C/C(=O)c1ccncc1,inactive: -21.1%,
CCN(CC)S(=O)(=O)c1ccc(NCCCn2ccnc2)c([N+](=O)[O-])c1,,"inconclusive [inhibitor, partial curve, poor fit]"
COc1ccccc1NC(=S)N(CCN1CCOCC1)Cc1ccccc1F,,"inconclusive [inhibitor, single point]"
Cc1ccc(NC(=O)C2CCN(S(=O)(=O)c3cccc4nonc34)CC2)c(Cl)c1,inactive: 5.32%,
CCNC(=S)N/N=C/c1ccc(OCCOc2ccccc2C)cc1,inactive: -21.5%,
O=C(c1ccccc1)N1CCN(c2ccc([N+](=O)[O-])c(N3CCOCC3)c2)CC1,inconclusive: -31% [inhibitor],
CCOC(=O)C1=C(CS(=O)(=O)c2ccc(C(C)(C)C)cc2)NC(=O)NC1c1cccc(OC)c1 (stereo unspecified),,active: 16.4 µM
C=CCc1ccccc1OCC(CN1CCCCC1)OC(C)=O (stereo unspecified),,"inconclusive [inhibitor, single point]"
N/C(=N\OC(=O)c1ccccc1)C(Cc1ccccc1)C(=O)NOC(=O)c1ccccc1 (stereo unspecified),,active: 2.59 µM
Cc1sc(N/N=C/c2cccnc2)nc1-c1ccccc1,,"inconclusive [inhibitor, single point]"
CC(=O)N1N=C(N)SC1c1ccc(Cl)c(Cl)c1 (stereo unspecified),,"inconclusive [inhibitor, single point]"
O=C(CN1CCN(S(=O)(=O)c2ccccc2Cl)CC1)NCC1(N2CCOCC2)CCCCC1,,"inconclusive [inhibitor, partial curve, poor fit]"
CCNc1cc2n(c(=O)n1)CCc1cc(OC)c(OC)cc1-2,inactive: -17.1%,
COc1cccc2c1OCC(C(=O)Nc1nccs1)=C2,,"inconclusive [inhibitor, single point]"
CC1COc2ccccc2N1S(=O)(=O)c1cc(Cl)ccc1Cl (stereo unspecified),,"inconclusive [inhibitor, partial curve]"
CC(C)Oc1ccc(C2CC(=O)N(c3ccc(N(C)C)cc3)C2=O)cc1 (stereo unspecified),inactive: -10.7%,
CC(=O)Nc1ccc(S(=O)(=O)N2CCN=C2SCc2cccnc2)cc1,,"inconclusive [inhibitor, partial curve]"
Cc1noc(C)c1NC(=O)N(C)C[C@@H]1OCc2ccccc2-c2c(n(C)c3ccccc23)C(=O)N([C@H](C)CO)C[C@H]1C,,"inconclusive [inhibitor, full curve]"
C[C@H](CO)N1C[C@H](C)[C@@H](CN(C)C(=O)Nc2ccccc2)Oc2ncc(C#CC3CCCCC3)cc2C1=O,,"inconclusive [inhibitor, partial curve, poor fit]"
COc1cc(=O)n2c(c1C(=O)N(C)Cc1nonc1C)CCN(CC1CC=CCC1)CC2 (stereo unspecified),inactive: -14.6%,
COCCNc1nc2ccccc2nc1NS(=O)(=O)c1ccc(C)cc1C,inactive: 2.65%,
CCn1c(C)cc(=S)c2ccccc21,,"inconclusive [inhibitor, single point]"
COc1ccc(C2(c3ccc(OC)cc3)NC(=O)N(CC(=O)N(C)c3ccccc3)C2=O)cc1,,"inconclusive [inhibitor, single point]"

Structure (SMILES),"activity change, negative = growth inhibition",Potency
FC(F)(F)c1cccc(NC(=S)NCC(c2cccnc2)N2CCOCC2)c1 (stereo unspecified),,"inconclusive [inhibitor, single point]"
CN(c1ncc(C(F)(F)F)cc1Cl)N1C(=O)c2cccc(N)c2C1=O,,"inconclusive [inhibitor, partial curve, poor fit]"
O=C(c1ccc(CS(=O)c2ccccc2Cl)o1)N1CCN(C2CCCCC2)CC1 (stereo unspecified),,"inconclusive [inhibitor, single point]"
COc1ccc(Oc2ncc3ncc(=O)n(CCC#N)c3n2)cc1,,"inconclusive [inhibitor, single point]"
COc1ccc(S(=O)(=O)NCC2CCCO2)cc1Cl (stereo unspecified),,"inconclusive [inhibitor, single point]"
CC[C@]1(C(=O)OC)[C@H]2C(=O)N(Cc3ccccc3)C(=O)[C@H]2[C@H]2CN=C(SCc3ccccc3)N21,,"inconclusive [inhibitor, single point]"
COc1ccc(S(=O)(=O)N2CCN(c3ccc(C)cc3C)CC2)cc1OC,,"inconclusive [inhibitor, single point]"
Cc1ccc2nc(NC(=O)COC(=O)c3ccccn3)sc2c1,inactive: -6.8%,
O=C(C[C@H]1C/C=C\CCCC(=O)OC[C@H]2CCCN2C1=O)NCCO,inactive: 6.66%,
O=C(CSc1nc(=O)n2cc(Cl)ccc2n1)NCCc1ccccc1,inactive: -7.09%,
Cc1ccc2c(c1)N(C(=O)CCC(=O)N1CCC(C(N)=O)CC1)CCO2,inactive: -9.21%,
CCOc1ccc(C(=O)/C=C/c2ccccc2C(F)(F)F)cc1,inactive: -9.35%,
CC1Cc2ccccc2N1CC(=O)c1c(N)n(Cc2ccccc2)c(=O)n(C)c1=O (stereo unspecified),,"inconclusive [inhibitor, partial curve, poor fit]"
COc1ccc(S(=O)(=O)CC(=O)c2cc3cccc(C)c3oc2=O)cc1,,"inconclusive [inhibitor, single point]"
C/C(=N\NC(=O)Cn1c(-c2ccccn2)nc2ccccc21)c1cccc(O)c1,,"inconclusive [inhibitor, single point]"
NC(=O)[C@@H]1CCCN1Cc1c(C(=O)N2CCc3ccccc3C2)nc2ccc(Cl)cn12,inactive: 26.5%,
O=C(c1ccccc1-c1nc(-c2ccccc2)no1)N1CCCC1,,"inconclusive [inhibitor, partial curve, poor fit]"
Nc1sc(-c2ccccc2)cc1C(=O)NCCc1c[nH]c2ccccc12,,active: 14.6 µM
O=C(c1ccncc1)N1CCC2(CCCN(C(c3ccccc3)c3ccccc3)C2)CC1,,"inconclusive [inhibitor, single point]"
Cc1cc(S(=O)(=O)Nc2cc3c(cc2NCc2ccccc2)n(C)c(=O)n3C)ccc1F,,active: 11.6 µM
O=C(Nc1ccccc1[N+](=O)[O-])OCC=Cc1ccccc1,,"inconclusive [inhibitor, single point]"
O=C(CSCc1ccc(F)cc1)N1CCc2c([nH]c3ccccc23)C1c1ccc(F)cc1 (stereo unspecified),,active: 18.4 µM
COc1ccccc1CNc1ccnc(-c2ccc3c(c2)OCO3)n1,,"inconclusive [inhibitor, single point]"
